Our source for the binding signal values is article PMC12136788.

The list shows a part of the results.

T1: UNK ZnF1-6 (called full-length) (human, UniProt Q9C0B0 30-357)
T1 sequence: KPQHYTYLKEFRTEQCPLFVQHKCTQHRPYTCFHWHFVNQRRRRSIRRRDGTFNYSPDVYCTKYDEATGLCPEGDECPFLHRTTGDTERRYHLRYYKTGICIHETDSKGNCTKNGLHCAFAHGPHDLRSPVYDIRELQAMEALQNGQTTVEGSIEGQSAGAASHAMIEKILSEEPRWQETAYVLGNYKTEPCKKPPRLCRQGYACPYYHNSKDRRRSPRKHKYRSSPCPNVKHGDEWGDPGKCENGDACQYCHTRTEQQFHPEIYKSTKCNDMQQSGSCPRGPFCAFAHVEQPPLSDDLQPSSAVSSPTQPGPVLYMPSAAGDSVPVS

B1: chr15:44665791:44665971:-|CDS|ENSG00000229474|control|control|control (ssRNA)
RNA: GGGAGUUCUACAGUCCGACGAUCGAUCUGUUUGUUCUGGAAUACGUGUAUGUGGGAAGUUGAAUCAUCAGACACUAGCUACAUAGACUAUGUUUACAGGGAUCCAGAGAGUCUGAAGACAUUUCUUAUGCCUUUAUAUAUUGGCAACAGAGGAUUGAGCAUCA
B2: chr2:206755008:206755505:-|CDS|ENSG00000138400|control|control|control (ssRNA)
RNA: GGGAGUUCUACAGUCCGACGAUCCACUCUGGAGGACUGCCUCCGAAGCAGGGUGCCUCUCUGCAGGCUCUAUGGGUACCUGAUAGAGAAAAAUGCUCAUGAGUCUGUCAGAGUCAUCGUGGGAGGGAGAACCUUUGUAAACCUCAACAGAGGAUUGAGCAUCA
B3: ENSG00000152601:stop:overlap|stop_codon|ENSG00000152601|stop_codon|NA|stop_codon (ssRNA)
RNA: GGGAGUUCUACAGUCCGACGAUCACCAGAUACCCAUAAUAUCUGCCGAACAUCUGACUAGCCACAAGUAUGUUACCCAGAUGUAGAAUUUUCAUCACUAAACAAUCAUGCUAAAGAGGAAAGGACAGUGUGCUUGGUUAGAGUCAACAGAGGAUUGAGCAUCA
B4: chr12:123761472:123761573:+|3pUTR|ENSG00000185344|unk|FALSE|unique (ssRNA)
RNA: GGGAGUUCUACAGUCCGACGAUCAAUAAGGCAGUUUGAACGAACAGUCUUCCCACAGUCAGGCCAUUUUUGCUGAUUUGGUUUAGAAUUUUCAGAAAUACUUAGUACACUCCACCUGUUCUUUGAUGGGAAUAUCUAAGAAGGCAACAGAGGAUUGAGCAUCA
B5: chr3:12540195:12540433:-|CDS|ENSG00000225526|control|control|control (ssRNA)
RNA: GGGAGUUCUACAGUCCGACGAUCCACCAUAACUGCUACUCUUACGCACUCACGUUCAUUAACUGCGUUCUGAUGGCAGAAGGUAGACAGCAACUGGACAAGGGUGAAUUUACGGAGAAGUACGUGGUCCCGCGGACAAGGCUGCAACAGAGGAUUGAGCAUCA
B6: chr1:155134173:155134274:+|3pUTR|ENSG00000169242|msi1|FALSE|unique (ssRNA)
RNA: GGGAGUUCUACAGUCCGACGAUCGCCACUUUCAGAGCCCCCAGCCCUGGGAACCACUCCCACCACAGGCAUAAGCUAUCACCUAGCAGCCUCAAAACGGGUCAGUAUUAAGGUUUUCAACCGGAAGGAGGCCAACCAGCCCGACAACAGAGGAUUGAGCAUCA
B7: chr2:166409664:166409935:-|three_prime_utr|ENSG00000136546|control|control|control (ssRNA)
RNA: GGGAGUUCUACAGUCCGACGAUCUGUGGUAACAAGCCAAGCUUUUAAUGUCAUUGUUAUGGUUCUUAUAUGUUUCCAAGCAAUAGCCAUGAUGAUAGACACUGAUGUUCAGAGUCUACAAAUGUCCAUUGCUCUCUACUGGAUCAACAGAGGAUUGAGCAUCA
B8: chr10:123051058:123051159:+|CDS|ENSG00000196177|unk|total|mutant (ssRNA)
RNA: GGGAGUUCUACAGUCCGACGAUCCAAGUGGCUCACGUGGCCACCCAGCUGGAAGCUGCAAGAUUACUAACAUACAAUGCUGCCCGGCUUUCCGAAGCUGGAAAGCCAUUCAUAAAAGAAGCGUCAAUGGCCAAAUACUAUGCACAACAGAGGAUUGAGCAUCA
B9: chrX:119453419:119453520:+|3pUTR|ENSG00000077713|unk|FALSE|unique (ssRNA)
RNA: GGGAGUUCUACAGUCCGACGAUCCAGGUAAUUGAAGUGGCUGAGUGGAUACCACGUUGUGAGGUCAGCCACUGGGUCACUUGUAGUCAAUGCAAAGCUUGCACAAACCAACGUCAGCCUAGUUUCACUCAGUUUGACCUGAGACAACAGAGGAUUGAGCAUCA
B10: chr7:6403584:6403671:+|3pUTR|ENSG00000136238|msi1_unk|total|mutant (ssRNA)
RNA: GGGAGUUCUACAGUCCGACGAUCUUUUCCCGUAACCCGGUGUAAAAAUCAUGUGUUGCAGCUUUACCGUUUUUAAAAUAUUUCCGAUAAUUCUUAAACUAUGAACCUUCUUAACAUCACUGUCUUGCCAGAUUACCGACACUGCAACAGAGGAUUGAGCAUCA
B11: chr1:51919672:51919773:-|3pUTR|ENSG00000169213|unk|total|mutant (ssRNA)
RNA: GGGAGUUCUACAGUCCGACGAUCUAUUCUUUGCCUGCCCCUGGGGUUCUCUGCAGAUGGUCCCAGUAACCGAUACUCAGCACCCGACUAACAUAACAGGUCACUACACGGGUGCAGAAUCACUUUACAAAAGAAGACUCUGUUCAACAGAGGAUUGAGCAUCA
B12: chr4:102797111:102797208:-|3pUTR|ENSG00000109332|msi1_unk|FALSE|overlapping (ssRNA)
RNA: GGGAGUUCUACAGUCCGACGAUCUCUGAGAAGACUUAAGUUCUUCCAGCUUUGGACAAUAACUGCUUUUAGAAACUGUAAAGUAGUUACAAGAGAACAGUUGCCCAAGACUCAGAAUUUUUAAAAAAAAAAAUGGAGCAUGUGCAACAGAGGAUUGAGCAUCA
B13: chr2:190436306:190436418:+|CDS|ENSG00000151690|unk|FALSE|unique (ssRNA)
RNA: GGGAGUUCUACAGUCCGACGAUCCCUUUUGCCUGUGUAUUACAAACAGCUGGGAAUGUCUCCAAGCCAGAGUGGACUACUAGUAGGUAUUCGUUACUUCAUUGAAUUCUGCAGUGCCCCCUUUUGGGGUGUAGUUGCAGACCGCAACAGAGGAUUGAGCAUCA
B14: chr6:132296306:132296407:-|3pUTR|ENSG00000079931|msi1|FALSE|unique (ssRNA)
RNA: GGGAGUUCUACAGUCCGACGAUCAUGGGAAACAUAGAAAUGGUAUGUAUUAAUAACUGAUCAUAGGCUGAGGAGAAAAAAUGUAGCUGGCUGCAAACCCAGUGCUGUGAGGUGACUUAUAUGAGGUUCCAGAUCAAAGACAGGCAACAGAGGAUUGAGCAUCA
B15: chr17:34256851:34257067:+|3pUTR|ENSG00000108691|msi1|FALSE|unique (ssRNA)
RNA: GGGAGUUCUACAGUCCGACGAUCUUAAGUAAUGUUAAUUCUUAUUUAAGUUAUUGAUGUUUUAAGUUUAUCUUUCAUGGUACUAGUGUUUUUUAGAUACAGAGACUUGGGGAAAUUGCUUUUCCUCUUGAACCACAGUUCUACCAACAGAGGAUUGAGCAUCA
B16: ENSG00000198589:be:win_5701|CDS|ENSG00000198589|bound_else_gene|NA|bound_elsewhere_windowed (ssRNA)
RNA: GGGAGUUCUACAGUCCGACGAUCUUUAUCCUGAGCAGGCAGAGAGCAGAAGAUAUUCACAGACAUGCGGAAUUUGAGUCACUGUGUGCCCAGUAUUCUGCAGACAAACGAGAAGAUGAGAAGAUGUGUGAUCAUUUGAUAAGACAACAGAGGAUUGAGCAUCA
B17: ENSG00000162129:stop:overlap|stop_codon|ENSG00000162129|stop_codon|NA|stop_codon (ssRNA)
RNA: GGGAGUUCUACAGUCCGACGAUCAGACUCGCAGACUGGACAUCCGGGCACCACUGCACCCUGAGAAGGUGUGCAACACCAUCUAGCAGCCACCUGCCUGCUCCUAUGUGCCCUCACCAUCCAAUAAAGGCCCCUUGGCUGUGGCAACAGAGGAUUGAGCAUCA
B18: chr3:141442868:141442977:+|CDS|ENSG00000177311|unk|FALSE|unique (ssRNA)
RNA: GGGAGUUCUACAGUCCGACGAUCCCAGCCAUCACUAAUGGGCCAAGGAUCACAAAUGCAUUUUCCAUCAUCGAAACAGAAAAUAGUAAUAACAUGUUUUCCCCGCUGGACUUGAGGGCAAGUUUCAAAAAGGUCUCCGACUCCCAACAGAGGAUUGAGCAUCA
B19: chr12:110381781:110381892:-|CDS|ENSG00000196510|unk|total|mutant (ssRNA)
RNA: GGGAGUUCUACAGUCCGACGAUCAAGGCCAUUCAGCUGAACAGUAACCGUGUUCAAGCUCUGCUACUUAAGGGAGCAGCACUCCGGAACAUGGGCAGAGUCCAAGAAGCAAUAAUCCACUUUCGGGAGGCCAUACGGCUCGCACAACAGAGGAUUGAGCAUCA
B20: chr11:102955251:102955493:-|CDS|ENSG00000137745|control|control|control (ssRNA)
RNA: GGGAGUUCUACAGUCCGACGAUCCCGAGAAAUGCAGUCUUUCUUCGGCUUAGAGGUGACUGGCAAACUUGACGAUAACACCUUAGAUGUCAUGAAAAAGCCAAGAUGCGGGGUUCCUGAUGUGGGUGAAUACAAUGUUUUCCCCAACAGAGGAUUGAGCAUCA
B21: ENSG00000184840:stop:overlap|stop_codon|ENSG00000184840|stop_codon|NA|stop_codon (ssRNA)
RNA: GGGAGUUCUACAGUCCGACGAUCCCAUCGGUGUCUGGCAGAUGCGGCACCUCAAGAGCUUCUUUGAAGCCAAGAAGCUUGUGUAGCUGUCCCAGGCGUCACAACCCAUCCUCCCAGGCUGGGGGAGAAAGGACCUCCUGGAACCAACAGAGGAUUGAGCAUCA
B22: chr7:77639488:77639589:+|3pUTR|ENSG00000127947|msi1|FALSE|bound_elsewhere (ssRNA)
RNA: GGGAGUUCUACAGUCCGACGAUCAGUAUUAUUGCCUUAAUGUCUCUUAACCCUGUUACACGCUGCUUGUAGACAUGUUAAUAUAGUAAUACCUUUAUGAUAUAUUGAGUUUAAGGACUACUCUUUUUCUGUUUUAUCAUGUAUCAACAGAGGAUUGAGCAUCA

The assay deals with T1, UNK ZnF1-6 (called full-length). Kind of assay: nsRBNS (natural sequence RNA bind-n-seq); RBNS binding buffer (assumed for nsRBNS): 25 mM Tris pH 7.5, 150 mM KCl, 3 mM MgCl2, 0.01% Triton X-100, 500 ug/ml BSA, 20 U/ml SUPERase-In, 4 C; UNK is unkempt and MSI1 is Musashi-1; names of the RNAs are library labels; protein concentration not given here; high values mean tight binding.
On to B1, for which the binding signal turned out to be 0.347 enrichment R.
The result for B2 reads 0.535 enrichment R; that for B3, 0.758 enrichment R; that for B4, 1.14 enrichment R.
For B5 the value was 0.59 enrichment R; for B6, 0.8 enrichment R; for B7, 0.288 enrichment R.
For B8 the value was 0.376 enrichment R.
Regarding B9, the binding signal came out at 0.577 enrichment R.
The result for B10 reads 0.902 enrichment R; that for B11, 0.638 enrichment R; that for B12, 0.466 enrichment R.
For B13 the value was 0.473 enrichment R; for B14, 0.863 enrichment R.
For B15 the value was 1.77 enrichment R; for B16, 0.584 enrichment R; for B17, 0.501 enrichment R.
Take B18: the binding signal was 0.633 enrichment R.
For B19 the value was 0.575 enrichment R.
For B20 the value was 0.62 enrichment R.
The result for B21 reads 0.576 enrichment R.
As to B22, the binding signal amounted to 0.938 enrichment R.
